The structures appear in SMILES notation. Among all 310,000 compounds or so, about 2,200 (0.71%) showed an effect of 50% or more. Effects have a minus sign here. The list shows a part of the results.

The target of the experiment is human ether-à-go-go-related gene (hERG) potassium channel (human, UniProt Q12809). The experiment is described as follows: primary screen, population patch clamp on CHO cells stably expressing hERG.
Chain of human ether-à-go-go-related gene (hERG) potassium channel (Q12809 whole entry, looked up): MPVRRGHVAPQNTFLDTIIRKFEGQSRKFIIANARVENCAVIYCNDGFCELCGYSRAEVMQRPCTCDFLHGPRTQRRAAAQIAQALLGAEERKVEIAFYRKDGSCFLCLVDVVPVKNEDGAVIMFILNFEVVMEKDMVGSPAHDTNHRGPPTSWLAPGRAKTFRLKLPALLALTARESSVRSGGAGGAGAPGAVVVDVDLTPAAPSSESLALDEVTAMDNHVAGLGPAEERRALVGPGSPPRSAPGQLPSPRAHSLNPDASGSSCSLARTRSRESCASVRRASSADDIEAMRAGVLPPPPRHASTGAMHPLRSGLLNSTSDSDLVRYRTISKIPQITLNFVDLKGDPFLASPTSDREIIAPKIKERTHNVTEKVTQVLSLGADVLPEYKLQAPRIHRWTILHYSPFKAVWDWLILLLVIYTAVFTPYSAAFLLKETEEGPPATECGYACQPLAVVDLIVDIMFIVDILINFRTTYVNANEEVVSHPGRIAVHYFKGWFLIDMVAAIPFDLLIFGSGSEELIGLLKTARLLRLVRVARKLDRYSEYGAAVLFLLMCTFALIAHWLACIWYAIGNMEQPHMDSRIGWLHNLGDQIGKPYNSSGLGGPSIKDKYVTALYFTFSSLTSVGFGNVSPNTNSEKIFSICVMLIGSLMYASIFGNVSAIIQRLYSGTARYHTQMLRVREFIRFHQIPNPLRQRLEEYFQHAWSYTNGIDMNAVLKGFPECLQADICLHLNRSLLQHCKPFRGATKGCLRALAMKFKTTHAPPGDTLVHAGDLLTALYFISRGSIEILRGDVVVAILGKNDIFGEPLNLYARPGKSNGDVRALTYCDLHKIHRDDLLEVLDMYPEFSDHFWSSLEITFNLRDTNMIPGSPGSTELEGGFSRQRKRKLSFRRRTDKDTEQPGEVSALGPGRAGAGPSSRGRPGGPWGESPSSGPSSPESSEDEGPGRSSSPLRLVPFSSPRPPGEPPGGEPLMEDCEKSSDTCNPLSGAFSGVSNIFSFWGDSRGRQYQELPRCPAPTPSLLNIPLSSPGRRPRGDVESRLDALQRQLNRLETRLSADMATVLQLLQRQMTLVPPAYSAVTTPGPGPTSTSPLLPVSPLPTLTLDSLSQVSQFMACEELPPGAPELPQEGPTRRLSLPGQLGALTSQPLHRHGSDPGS
For the compound `O=C1CCC([N+](=O)[O-])C(c2ccc3c(c2)OCO3)N1` (centres unmarked), the “hERG current change (%, negative = inhibition) at 1uM” value was -0.159%.

`CCC(=O)N1CCc2cc(S(=O)(=O)N3CCc4ccccc4C3)ccc21`: the “hERG current change (%, negative = inhibition) at 1uM” value came to 6.48%.

Take `Cc1cccc(N(C(=O)Cn2nnc(-c3ccccc3F)n2)C(C(=O)NC(C)(C)C)c2ccncc2)c1` (centres unmarked): the “hERG current change (%, negative = inhibition) at 1uM” value is 17.7%.

In the case of `NC(=O)COC(=O)CNC(=O)c1sc2ccccc2c1Cl`, the “hERG current change (%, negative = inhibition) at 1uM” value amounted to 14.2%.

`COCCn1cnc2c1c(=O)n(CC(=O)OCC(=O)NCC(F)(F)F)c(=O)n2Cc1ccccc1`: the “hERG current change (%, negative = inhibition) at 1uM” value was 9.9%.

As for `O=C(O)c1cc(-c2cccs2)[nH]n1`, the “hERG current change (%, negative = inhibition) at 1uM” value worked out at 12.3%.

Take `CCCCn1c(N)c(N(C(=O)CSc2nnnn2-c2ccccc2)C2CCCC2)c(=O)[nH]c1=O`: the “hERG current change (%, negative = inhibition) at 1uM” value was found to be 5.99%.

In the case of `COCCNCCCOc1ccc(Br)cc1Cl.O=C(O)C(=O)O`, the “hERG current change (%, negative = inhibition) at 1uM” value is on record as 0.786%.

Consider `Cc1ccc(/C=N/N(Cc2ccccc2)c2ccccc2)o1`, for which the “hERG current change (%, negative = inhibition) at 1uM” value stood at 7.77%.

As for `Cc1ccnc(NC2OC(=O)c3ccccc32)c1` (centres unmarked), the “hERG current change (%, negative = inhibition) at 1uM” value is 15.9%.

In the case of `COc1ccc(CCC(=O)O)cc1OC`, the “hERG current change (%, negative = inhibition) at 1uM” value turned out to be 12.9%.

As for `CCc1ccccc1NC(=O)CN1CCN(CC(=O)NCc2ccc(Cl)cc2)CC1`, the “hERG current change (%, negative = inhibition) at 1uM” value is recorded as -1.79%.

As for `COc1ccc(CN(C(=O)/C=C/c2ccco2)C2CCS(=O)(=O)C2)cc1OC` (centres unmarked), the “hERG current change (%, negative = inhibition) at 1uM” value is on record as 22.5%.

As to `COc1cccc(O)c1CN1CCCC(C(=O)c2sccc2C)C1` (centres unmarked), the “hERG current change (%, negative = inhibition) at 1uM” value came to 6.67%.

On to `CCOc1ccccc1OCCC(=O)OCC(=O)Nc1c(C)cc(C)cc1C`, for which the “hERG current change (%, negative = inhibition) at 1uM” value worked out at 3.68%.

In the case of `CCCC(c1nnnn1CC1CCCO1)N1CCN(c2nc3ccccc3s2)CC1` (centres unmarked), the “hERG current change (%, negative = inhibition) at 1uM” value was 2.19%.

`CC1(C)Cc2c(sc3nc4n(c(=O)c23)CCC4)CO1`: the “hERG current change (%, negative = inhibition) at 1uM” value is reported as 8.21%.

Regarding `O=C(O)c1cccc(NS(=O)(=O)c2cccc(C(=O)Nc3ccccc3[N+](=O)[O-])c2)c1`, the “hERG current change (%, negative = inhibition) at 1uM” value was 5.11%.

Consider `CC1=C(C(=O)Nc2ccccc2)C(c2ccc(C)o2)N2C(=O)CSC2=N1` (centres unmarked), for which the “hERG current change (%, negative = inhibition) at 1uM” value was found to be 7.8%.

Consider `Cc1cc([N+](=O)[O-])c(C)cc1-c1ccc(/C=N/n2cnnc2)o1`, for which the “hERG current change (%, negative = inhibition) at 1uM” value stood at 7.86%.

`Cc1cc(S(=O)(=O)N2CCOCC2)ccc1F`: the “hERG current change (%, negative = inhibition) at 1uM” value is on record as 2.03%.

As for `CCC(C)(C)NC(=O)C(c1ccc(F)cc1)N(Cc1ccco1)C(=O)CCC(=O)Nc1ccccn1` (centres unmarked), the “hERG current change (%, negative = inhibition) at 1uM” value is reported as -2.95%.

For the compound `COc1cc2c(cc1OC)C(COc1cc(C)cc(C)c1)N(C(C)=O)CC2` (centres unmarked), the “hERG current change (%, negative = inhibition) at 1uM” value is 2.4%.

Consider `CCOC(=O)c1ccc(N2C(=O)CC(NC3CCN(C(=O)c4cccc(Cl)c4)CC3)C2=O)cc1` (centres unmarked), for which the “hERG current change (%, negative = inhibition) at 1uM” value is reported as -11.4%.

Consider `COc1cc(/C=N/NC(=S)Nc2cccnc2)cc(OC)c1O`, for which the “hERG current change (%, negative = inhibition) at 1uM” value is on record as 0.62%.

Take `Cc1ccc(-n2c3c(cc(C(=O)NCCCN4CCOCC4)c2=O)C(=O)CC(C)(C)C3)cc1`: the “hERG current change (%, negative = inhibition) at 1uM” value is given as 5%.

For `COc1ccc(OC)c(Nc2nc(N)nc(CCl)n2)c1`, the “hERG current change (%, negative = inhibition) at 1uM” value came out at 6.57%.

Consider `COc1cc(N)c(Cl)cc1C(=O)OCC(=O)c1ccc2c(c1)NC(=O)CO2`, for which the “hERG current change (%, negative = inhibition) at 1uM” value was found to be 11.9%.

As for `CCOc1ccc(S(=O)(=O)NCCC(=O)NCC(c2ccc(OC)cc2)N2CCCC2)cc1` (centres unmarked), the “hERG current change (%, negative = inhibition) at 1uM” value stood at 12.3%.

In the case of `NC(=O)c1c(NC(=O)C2CCCO2)sc2c1CCCCC2` (centres unmarked), the “hERG current change (%, negative = inhibition) at 1uM” value was 11.8%.

For `COc1ccc(NC(=O)Cn2ncn3c(cc4ccccc43)c2=O)c(OC)c1OC`, the “hERG current change (%, negative = inhibition) at 1uM” value was 15.4%.

As for `O=C(NC1CCC(O)CC1)c1ccc(-c2ccc([N+](=O)[O-])cc2)o1` (centres unmarked), the “hERG current change (%, negative = inhibition) at 1uM” value was -34%.

Consider `Cc1ccc(NC(=S)N/N=C2\CC3CC=CC23)c(C)c1` (centres unmarked), for which the “hERG current change (%, negative = inhibition) at 1uM” value amounted to 14.7%.

As for `O=C(c1ccccc1Oc1ccccc1)N1CCN(c2ccccc2)CC1`, the “hERG current change (%, negative = inhibition) at 1uM” value is on record as -1.64%.

Regarding `COc1ccc(CC(=O)O/N=C(\N)c2ccc(C)cc2)cc1`, the “hERG current change (%, negative = inhibition) at 1uM” value came out at 5.13%.

Take `Cc1ccsc1-c1n[nH]c(=S)n1CC(C)C`: the “hERG current change (%, negative = inhibition) at 1uM” value is 11.3%.

`OC1CCN(c2c3c(nc4cc(-c5ccc(F)cc5)nn24)CCC3)CC1`: the “hERG current change (%, negative = inhibition) at 1uM” value was determined as 14.7%.

Consider `COc1ccc(CN(C)C(=O)CNC(=O)CNC(=O)c2ccc(Cl)cc2Cl)cc1F`, for which the “hERG current change (%, negative = inhibition) at 1uM” value is -2.38%.

For `COc1ccc(C2C(C(=O)c3ccco3)=C(O)C(=O)N2CCN2CCOCC2)cc1` (centres unmarked), the “hERG current change (%, negative = inhibition) at 1uM” value is reported as 6.69%.

Turning to `O=C(O)CCC(=O)NCC(=O)c1ccc(F)cc1`, the “hERG current change (%, negative = inhibition) at 1uM” value turned out to be 9.05%.

Consider `C=CC[N+]1(CC=C)CCOCC1.[Br-]`, for which the “hERG current change (%, negative = inhibition) at 1uM” value is listed as 34.2%.

Consider `CCOC(=O)C1CCCN(C(=O)c2cccc(S(=O)(=O)N3CCOCC3)c2)C1` (centres unmarked), for which the “hERG current change (%, negative = inhibition) at 1uM” value worked out at 10%.

In the case of `CN(C)c1nc(NCc2ccccc2)nc(Oc2ccc(=O)[nH]n2)n1`, the “hERG current change (%, negative = inhibition) at 1uM” value was 7.5%.

For `Nc1ccccc1Nc1cc(-c2cccc(Cl)c2)nn1-c1ccccc1`, the “hERG current change (%, negative = inhibition) at 1uM” value was 8.16%.

For the origin of these results see PMC4336329 (PLoS ONE, 2015).
